Results from PubChem BioAssay (NCATS).
Inconclusive results, whose numbers are uncertain, are shown with a selection of clear calls. Where the call is inconclusive, the potency comes from a doubtful curve fit. The source made the active and inactive calls. Calls come from the whole dose curve; as a rule, active = well fitted cell-killing curve with a large enough effect; inconclusive = small, poorly fitted or top-dose-only effect; inactive = no such curve, though single readings can be large or run the other way.

assay: qHTS of pediatric cancer cell lines to identify multiple opportunities for drug repurposing: Primary screen for Saos-2 cells (AID 1347097); conditions: Saos-2 viability, CellTiter-Glo ATP luminescence, 48 h; activity change, negative = cytotoxic: at 46 µM (top of the series) unless noted; note: nearly all actives have a fitted effect of over 40% in size
How it was run: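 Cells seeded at 500-1,000 cells/well in growth media, rested 5 hours at 37 degrees C, 5% CO2, then dosed; MIPE compounds at 11-point (from 0.78 nM) and NPC at 8-point (from 0.59 nM) final concentrations. Viability by CellTiter-Glo luminescence after 48 hours.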
% is set by controls: 0 for no effect and ±100 for the full control effect; potency is the fitted concentration of half-maximal effect; tags give direction and shape of the fitted curve.

SMILES	Potency	activity change, negative = cytotoxic
O=S(=O)(O)C(F)(F)C(F)(F)C(F)(F)C(F)(F)C(F)(F)C(F)(F)C(F)(F)C(F)(F)F	inactive	
CCC(=O)C(CC(C)N(C)C)(c1ccccc1)c1ccccc1 (stereo unspecified)	inconclusive: 43.7 µM [cytotoxic, single point]	
O=c1c(C2CC(c3ccc(-c4ccc(Br)cc4)cc3)Cc3ccccc32)c(O)sc2ccccc12 (stereo unspecified)	inconclusive: 33.5 µM [cytotoxic, single point]	
C[C@H](CN1CCOCC1)C(C(=O)N1CCCC1)(c1ccccc1)c1ccccc1	inconclusive: 118 µM [cytotoxic, partial curve, poor fit]	
CC(C)=CCN1CC[C@@]2(C)c3cc(O)ccc3C[C@@H]1[C@@H]2C	inconclusive: 84.6 µM [cytotoxic, partial curve, poor fit]	
CC[C@H]1C[C@@H]2C[C@H]3c4[nH]c5ccc(OC)cc5c4CCN(C2)[C@@H]13	inconclusive: 53.4 µM [cytotoxic, single point]	
CC1Sc2c(C(=O)O)c(=O)c3cc(F)c(N4CCNCC4)cc3n21 (stereo unspecified)	inactive	
CCN(CC)Cc1nccn1-c1ccc([N+](=O)[O-])cc1C(=O)c1ccccc1Cl	inactive	
O=P1(N(CCCl)CCCl)NCCCO1 (stereo unspecified)	inconclusive: 1.87 µM [cytotoxic, partial curve, poor fit]	
COP(=S)(OC)SCN1C(=O)c2ccccc2C1=O		inconclusive: -40.8% [cytotoxic]
CC(CC(C#N)(c1ccccc1)c1ccccc1)N(C)C (stereo unspecified)	inconclusive: 68.6 µM [cytotoxic, single point]	
CC1(N2CCC(n3c([C@@H]4CCCNC4)nc4ccccc43)CC2)CCCCCCC1	inconclusive: 33.2 µM [cytotoxic, single point]	
C=CCN1CC[C@]23CCCC[C@H]2[C@H]1Cc1ccc(O)cc13	inconclusive: 23.7 µM [cytotoxic, single point]	
C=C1C[C@@H]2[C@H](CC[C@]3(C)C(=O)CC[C@@H]23)[C@@]2(C)C=CC(=O)C=C12	inconclusive: 26.6 µM [cytotoxic, single point]	
CC(C)(C)c1cc(C=C(C#N)C#N)cc(Br)c1O	inconclusive: 29.6 µM [cytotoxic, partial curve, poor fit]	
O=S(=O)(CC1CS1)c1ccc(Oc2ccccc2)cc1 (stereo unspecified)	active: 18.7 µM	
O=S(=O)(F)Cc1ccccc1	inactive	
NCC1(CC(=O)O)CCCCC1	inactive	
CN1C[C@H](CNC(=O)OCc2ccccc2)C[C@@H]2c3cccc4c3c(cn4C)C[C@H]21	inconclusive: 23.7 µM [cytotoxic, single point]	
CCCN(CCC)CCc1c[nH]c2ccccc12		inconclusive: -32.6% [cytotoxic] [at 92.7 µM]

assay: qHTS of pediatric cancer cell lines to identify multiple opportunities for drug repurposing: Primary screen for SK-N-SH cells (AID 1347098); conditions: SK-N-SH viability, CellTiter-Glo luminescence, 48 h; activity change, negative = cytotoxic: at 57 µM (top of the series) unless noted; note: nearly all actives have a fitted effect of over 65% in size;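 for activity change, negative = cytotoxic: DMSO served as neutral control and bortezomib at 2.3 µM as positive control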
How it was run: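 Cells (500-1,000/well) rested 5 h, then received compounds for 48 h; metabolically active cells were measured by CellTiter-Glo luminescence. Final concentrations spanned up to 46 µM (MIPE, 11-point) or 0.59 nM-46 µM (NPC, 8-point) in primary screens, 11-point in follow-ups.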

SMILES	Potency
O=c1c(C2CC(c3ccc(-c4ccc(Br)cc4)cc3)Cc3ccccc32)c(O)sc2ccccc12 (stereo unspecified)	inconclusive: 27.3 µM [cytotoxic, single point]
C[C@H](CN1CCOCC1)C(C(=O)N1CCCC1)(c1ccccc1)c1ccccc1	inconclusive: 19.3 µM [cytotoxic, partial curve, poor fit]
Clc1ccc(C(OCCN2CCCCC2)c2ccccc2)cc1 (stereo unspecified)	inconclusive: 24.4 µM [cytotoxic, single point]
COP(=S)(OC)SCN1C(=O)c2ccccc2C1=O	inactive
CC(CC(C#N)(c1ccccc1)c1ccccc1)N(C)C (stereo unspecified)	inconclusive: 44.4 µM [cytotoxic, single point]
CC(C)(C)c1cc(C=C(C#N)C#N)cc(Br)c1O	inconclusive: 42.9 µM [cytotoxic, single point]
O=S(=O)(CC1CS1)c1ccc(Oc2ccccc2)cc1 (stereo unspecified)	active: 24.1 µM
Cn1cc(C2=C(c3cn(C4CCN(Cc5ccccn5)CC4)c4ccccc34)C(=O)NC2=O)c2ccccc21	inconclusive: 10.8 µM [cytotoxic, partial curve]
C#C[C@]1(O)CC[C@H]2[C@@H]3CCC4=CC(=O)CCC4=C3C=C[C@@]21CC	inconclusive: 24.4 µM [cytotoxic, partial curve]
C=C[C@@H]1CN2CCC1C[C@H]2[C@H](O)c1ccnc2ccccc12 (stereo partly specified)	inconclusive: 38.3 µM [cytotoxic, single point]
O=C(O)CCCc1ccc(N(CCCl)CCCl)cc1	inactive
C=CCC1(C(C)CC)C(=O)NC(=O)NC1=O (stereo unspecified)	inconclusive: 7.7 µM [cytotoxic, single point]
Oc1ccc2[nH]cc(CCCCN3CC=C(c4ccccc4)CC3)c2c1	inconclusive: 10.9 µM [cytotoxic, partial curve, poor fit]
CCCN(CCC)CCc1c[nH]c2ccccc12	inactive
O=C1C=CC[C@@H]2[C@H]3CCCN4CCC[C@@H](CN12)[C@@H]34	inconclusive: 24.1 µM [cytotoxic, partial curve]
CNCC(O)c1ccc(O)cc1 (stereo unspecified)	inactive
